Test results as given in PubChem BioAssay AID540317 (National Center for Advancing Translational Sciences (NCATS), 2011).
The campaign covered roughly 390,000 compounds. About 2,200 (0.56%) were called active. This list was built around the results that the source calls inconclusive (neither active nor inactive); the mix of calls is not that of the screen. Calls follow the shape of the dose curve; as a rule, active = well fitted inhibition curve with a large enough effect; inconclusive = small, poorly fitted or top-dose-only effect; inactive = no such curve, though single readings can be large or run the other way. Potencies of inconclusive entries are doubtful fits and often do not repeat.

target: Chromobox protein homolog 1 (Homo sapiens) (UniProt P83916); assay: HTS for Inhibitors of HP1-beta Chromodomain Interactions with Methylated Histone Tails; settings: AlphaScreen HP1-beta / biotin-H3K9me3 peptide binding; series mostly up to 114 µM; also: nearly all actives have a fitted effect of over 70% in size
Sequence of UniProt P83916 (P83916 whole entry, looked up): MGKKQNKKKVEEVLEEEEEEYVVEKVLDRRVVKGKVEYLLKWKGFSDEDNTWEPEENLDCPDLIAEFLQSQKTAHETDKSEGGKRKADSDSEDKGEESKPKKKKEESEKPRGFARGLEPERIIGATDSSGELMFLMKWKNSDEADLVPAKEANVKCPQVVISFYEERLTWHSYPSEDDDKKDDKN
From the text: As our understanding of epigenetics expands, it is becoming clear that players in this field are potential targets for drug development. This area of epigenetic therapy has established applications for the treatment of cancer and neurological diseases. We have been involved in this field for a number of years and have performed high-throughput screens to identify the first small molecule inhibitors of protein methyltransferases. These methyltransferases target multiple substrates, and thus regulate many arms of an epigenetic pathway. The methylation of different substrates often generates docking sites for effector proteins that harbor binding domains (chromo, tudor, PHD, MBT and ANK repeats). It has been proposed that the binding sites generated for different proteins by these post-translational modifcations mediate downstream effects on chromatin. Consistent with this theory, di- and tri-methylation of histone H3K9 facilitates the binding of heterochromatin protein HP1. The HP1 protein harbors a chromodomain that is responsible for the methyl-dependent interaction between HP1 and lysine 9 of histone H3. HP1 was first described in flies as a heterochromatin associated protein that can regulate gene silencing. It harbors a chromodomain that binds H3K9me3. In addition, it harbors a chromoshadow domain that interacts with a large number of proteins that are involved in heterochromatin formation and gene repression. There are three highly related HP1 isoforms. All three variants are associated with pericentric heterochromatin and it is not clear whether they have specific or redundant functions. MPP8 is also involved in the repression of gene in euchromatic regions (unpublished data) and like HP1 its chromodomain binds H3K9me3. MPP8 harbors an ankyrin repeat region that is likely involved in binding and recruiting interacting proteins with transcriptional repressive function, much like the chromoshadow domain of HP1 does. We hypothesize that by inhibiting specific protein-protein interactions we will be able to develop compounds that block a single arm of an epigenetic pathway. The specificity attained by blocking a single protein-protein interaction will be far greater than that attained by blocking the enzyme that regulates one of many interactions. Low-affinity protein-protein interactions (Kd in the single- to double-digit micromolar range) such as those discussed here have been very difficult to assay by traditional techniques such as fluorescence polarization or fluorescence resonance energy transfer. We have developed a sensitive chemiluminescence-based assay (Quinn, et al. 2009), which serves as the starting point for this project. […]
Potency is read from the fitted curve at half-maximal effect; tags tell the direction and shape of the fitted curve.

Compound	Potency
COc1cc(NS(=O)(=O)c2ccc(NC(=S)NC(=O)c3sc4ccccc4c3Cl)cc2)nc(OC)n1	inconclusive: 17.8 µM [inhibitor, full curve]
O=C(NN1C(=O)/C(=C/c2ccc(O)cc2)SC1=S)c1ccccc1O	inconclusive: 44.7 µM [inhibitor, partial curve]
O=C1NN(c2ccc(F)c(Cl)c2)C(=O)/C1=C\c1cccc(OC(=O)c2cccs2)c1	inconclusive: 44.7 µM [inhibitor, partial curve]
O=C(O)Cn1cc(/C=c2/sc3nc4ccccc4n3c2=O)c2ccccc21	inconclusive: 70.8 µM [inhibitor, partial curve]
